# The list shows a part of the results.
# B1: NKR-PIC (Mus musculus) (protein)
# chain: GTGQKPSREKCCVFIQENLNKTTDCSVNLECPQDWLLHRDKCFHVSQVSNTWEEGQADCGRKGATLLLIQDQEELRFLLDSIKEKYNSFWIGLRFTLPDMNWKWINGTTFNSDVLKITGVTENGSCASILGDKVTPESCASDNRWICQKELNHETPSNDSGT
# Columns and labels:
# Assay in all cases: glycan array binding signal (z-score within array); higher = stronger binding
# Conditions in all cases: glycan notation: IUPAC condensed, linker removed
# [1] = molecular target: Neu5Ac(a2-3)Gal(b1-4)GlcNAc(b1-3)[Neu5Ac(a2-3)Gal(b1-4)GlcNAc(b1-6)]GalNAc
# Outline: (§1)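 Glycan array data were curated from 3228 arrays in the Consortium for Functional Glycomics database and kept only where the protein sequence was available. Glycan names were converted to IUPAC-condensed notation, and columns mapping to the same glycan were averaged. The binding signal is a within-array Z-score, averaged across arrays of the same protein sequence at different concentrations or buffers and across linkers. Negative Z-scores can be read as non-binding.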
# [2] = molecular target: Neu5Ac(a2-3)Gal(b1-4)GlcNAc(b1-6)GalNAc
# Outline: as §1
# [3] = molecular target: Neu5Ac(a2-3)Gal(b1-4)GlcNAc(b1-6)[Gal(b1-3)]GalNAc
# Outline: as §1
# [4] = molecular target: Neu5Ac(a2-3)Gal(b1-4)GlcNAc(b1-6)[Neu5Ac(a2-3)Gal(b1-3)]GalNAc
# Outline: as §1
# [5] = molecular target: Neu5Ac(a2-3)Gal(b1-4)GlcNAc6S
# Outline: as §1
# [6] = molecular target: Neu5Ac(a2-3)Gal(b1-4)[Fuc(a1-3)]GlcNAc
# Outline: as §1
# [7] = molecular target: Neu5Ac(a2-3)Gal(b1-4)[Fuc(a1-3)]GlcNAc(b1-2)Man
# Outline: as §1
# [8] = molecular target: Neu5Ac(a2-3)Gal(b1-4)[Fuc(a1-3)]GlcNAc(b1-3)Gal
# Outline: as §1
# [9] = molecular target: Neu5Ac(a2-3)Gal(b1-4)[Fuc(a1-3)]GlcNAc(b1-3)Gal(b1-4)GlcNAc
# Outline: as §1
# [10] = molecular target: Neu5Ac(a2-3)Gal(b1-4)[Fuc(a1-3)]GlcNAc(b1-3)Gal(b1-4)[Fuc(a1-3)]GlcNAc(b1-3)Gal(b1-4)[Fuc(a1-3)]GlcNAc
# Outline: as §1
# [11] = molecular target: Neu5Ac(a2-3)Gal(b1-4)[Fuc(a1-3)]GlcNAc(b1-3)GalNAc
# Outline: as §1
# [12] = molecular target: Neu5Ac(a2-3)Gal(b1-4)[Fuc(a1-3)]GlcNAc(b1-6)[Gal(b1-3)]GalNAc
# Outline: as §1
# [13] = molecular target: Neu5Ac(a2-3)Gal(b1-4)[Fuc(a1-3)]GlcNAc(b1-6)[Neu5Ac(a2-3)Gal(b1-3)]GalNAc
# Outline: as §1
# [14] = molecular target: Neu5Ac(a2-3)Gal(b1-4)[Fuc(a1-3)]GlcNAc6S
# Outline: as §1
# [15] = molecular target: Neu5Ac(a2-3)Gal6S(b1-4)GlcNAc
# Outline: as §1
# [16] = molecular target: Neu5Ac(a2-3)Gal6S(b1-4)[Fuc(a1-3)]GlcNAc
# Outline: as §1
# Neu5Ac(a2-3)GalNAc = molecular target: Neu5Ac(a2-3)GalNAc
# Outline: as §1
# [17] = molecular target: Neu5Ac(a2-3)GalNAc(b1-4)GlcNAc
# Outline: as §1
# [18] = molecular target: Neu5Ac(a2-3)[GalNAc(b1-4)]Gal(b1-4)Glc
# Outline: as §1
# [19] = molecular target: Neu5Ac(a2-3)[GalNAc(b1-4)]Gal(b1-4)GlcNAc
# Outline: as §1
# [20] = molecular target: Neu5Ac(a2-3)[GalNAc(b1-4)]Gal(b1-4)GlcNAc(b1-3)GalNAc
# Outline: as §1
# [21] = molecular target: Neu5Ac(a2-3)[Neu5Ac(a2-6)]GalNAc
# Outline: as §1
# Neu5Ac(a2-6)Gal = molecular target: Neu5Ac(a2-6)Gal
# Outline: as §1
# [22] = molecular target: Neu5Ac(a2-6)Gal(b1-3)GlcNAc(b1-3)[Gal(b1-4)GlcNAc(b1-6)]Gal(b1-4)Glc
# Outline: as §1
# Neu5Ac(a2-6)Gal(b1-4)Glc = molecular target: Neu5Ac(a2-6)Gal(b1-4)Glc
# Outline: as §1
# [23] = molecular target: Neu5Ac(a2-6)Gal(b1-4)GlcNAc
# Outline: as §1
# [24] = molecular target: Neu5Ac(a2-6)Gal(b1-4)GlcNAc(b1-2)Man
# Outline: as §1
# [25] = molecular target: Neu5Ac(a2-6)Gal(b1-4)GlcNAc(b1-2)Man(a1-3)Man(b1-4)GlcNAc(b1-4)GlcNAc
# Outline: as §1
# [26] = molecular target: Neu5Ac(a2-6)Gal(b1-4)GlcNAc(b1-2)Man(a1-3)[Gal(b1-4)GlcNAc(b1-2)Man(a1-6)]Man(b1-4)GlcNAc(b1-4)GlcNAc
# Outline: as §1
# [27] = molecular target: Neu5Ac(a2-6)Gal(b1-4)GlcNAc(b1-2)Man(a1-3)[GlcNAc(b1-2)Man(a1-6)]Man(b1-4)GlcNAc(b1-4)GlcNAc
# Outline: as §1
# [28] = molecular target: Neu5Ac(a2-6)Gal(b1-4)GlcNAc(b1-2)Man(a1-3)[GlcNAc(b1-4)][Neu5Ac(a2-6)Gal(b1-4)GlcNAc(b1-2)Man(a1-6)]Man(b1-4)GlcNAc(b1-4)GlcNAc
# Outline: as §1
binder,measurement,setting,value
B1,glycan array binding signal (z-score),[1],-0.35
same,glycan array binding signal (z-score),[2],-0.363
same,glycan array binding signal (z-score),[3],-0.393
same,glycan array binding signal (z-score),[4],-0.339
same,glycan array binding signal (z-score),[5],-0.21
same,glycan array binding signal (z-score),[6],-0.275
same,glycan array binding signal (z-score),[7],-0.375
same,glycan array binding signal (z-score),[8],-0.239
same,glycan array binding signal (z-score),[9],-0.176
same,glycan array binding signal (z-score),[10],-0.253
same,glycan array binding signal (z-score),[11],-0.211
same,glycan array binding signal (z-score),[12],-0.305
same,glycan array binding signal (z-score),[13],-0.328
same,glycan array binding signal (z-score),[14],-0.29
same,glycan array binding signal (z-score),[15],-0.253
same,glycan array binding signal (z-score),[16],-0.391
same,glycan array binding signal (z-score),Neu5Ac(a2-3)GalNAc,-0.388
same,glycan array binding signal (z-score),[17],-0.289
same,glycan array binding signal (z-score),[18],-0.289
same,glycan array binding signal (z-score),[19],-0.391
same,glycan array binding signal (z-score),[20],-0.362
same,glycan array binding signal (z-score),[21],-0.358
same,glycan array binding signal (z-score),Neu5Ac(a2-6)Gal,-0.258
same,glycan array binding signal (z-score),[22],-0.262
same,glycan array binding signal (z-score),Neu5Ac(a2-6)Gal(b1-4)Glc,-0.292
same,glycan array binding signal (z-score),[23],-0.335
same,glycan array binding signal (z-score),[24],-0.298
same,glycan array binding signal (z-score),[25],-0.251
same,glycan array binding signal (z-score),[26],-0.178
same,glycan array binding signal (z-score),[27],-0.338
same,glycan array binding signal (z-score),[28],-0.24

# — the supplement of paper PMC8728848
